Assay results as given in PubChem BioAssay AID504332 (National Center for Advancing Translational Sciences (NCATS), 2011).
Screen size: about 350,000 compounds; about 31,000 (8.9%) were called active. The shares of active, inactive and inconclusive entries below differ from those in the screen. Calls follow the shape of the dose curve; as a rule, active = well fitted inhibition curve with a large enough effect; inconclusive = small, poorly fitted or top-dose-only effect; inactive = no such curve, though single readings can be large or run the other way. Potencies of inconclusive entries are doubtful fits and often do not repeat.

target: Histone-lysine N-methyltransferase EHMT2 (Homo sapiens) (UniProt Q96KQ7); test: qHTS Assay for Inhibitors of Histone Lysine Methyltransferase G9a; conditions: G9a H3K9 monomethylation, AlphaScreen, 2 h; activity, negative = inhibition: at 59 µM (top of the series) unless noted; also: nearly all actives have a fitted effect of over 75% in size
Method in brief: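 Methyltransferase reactions run at room temperature for 2 h (20 nM enzyme, 500 nM biotin-H3K9 peptide, 20 uM SAM) after a 15 min compound preincubation; product detected by AlphaScreen beads and anti-H3K9me1 antibody.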
% is scaled to controls: 0 for no effect and ±100 for the full control effect; potency is read from the fitted curve at half-maximal effect; tags tell the direction and shape of the fitted curve.

Sequence of UniProt Q96KQ7 (Q96KQ7 whole entry, looked up): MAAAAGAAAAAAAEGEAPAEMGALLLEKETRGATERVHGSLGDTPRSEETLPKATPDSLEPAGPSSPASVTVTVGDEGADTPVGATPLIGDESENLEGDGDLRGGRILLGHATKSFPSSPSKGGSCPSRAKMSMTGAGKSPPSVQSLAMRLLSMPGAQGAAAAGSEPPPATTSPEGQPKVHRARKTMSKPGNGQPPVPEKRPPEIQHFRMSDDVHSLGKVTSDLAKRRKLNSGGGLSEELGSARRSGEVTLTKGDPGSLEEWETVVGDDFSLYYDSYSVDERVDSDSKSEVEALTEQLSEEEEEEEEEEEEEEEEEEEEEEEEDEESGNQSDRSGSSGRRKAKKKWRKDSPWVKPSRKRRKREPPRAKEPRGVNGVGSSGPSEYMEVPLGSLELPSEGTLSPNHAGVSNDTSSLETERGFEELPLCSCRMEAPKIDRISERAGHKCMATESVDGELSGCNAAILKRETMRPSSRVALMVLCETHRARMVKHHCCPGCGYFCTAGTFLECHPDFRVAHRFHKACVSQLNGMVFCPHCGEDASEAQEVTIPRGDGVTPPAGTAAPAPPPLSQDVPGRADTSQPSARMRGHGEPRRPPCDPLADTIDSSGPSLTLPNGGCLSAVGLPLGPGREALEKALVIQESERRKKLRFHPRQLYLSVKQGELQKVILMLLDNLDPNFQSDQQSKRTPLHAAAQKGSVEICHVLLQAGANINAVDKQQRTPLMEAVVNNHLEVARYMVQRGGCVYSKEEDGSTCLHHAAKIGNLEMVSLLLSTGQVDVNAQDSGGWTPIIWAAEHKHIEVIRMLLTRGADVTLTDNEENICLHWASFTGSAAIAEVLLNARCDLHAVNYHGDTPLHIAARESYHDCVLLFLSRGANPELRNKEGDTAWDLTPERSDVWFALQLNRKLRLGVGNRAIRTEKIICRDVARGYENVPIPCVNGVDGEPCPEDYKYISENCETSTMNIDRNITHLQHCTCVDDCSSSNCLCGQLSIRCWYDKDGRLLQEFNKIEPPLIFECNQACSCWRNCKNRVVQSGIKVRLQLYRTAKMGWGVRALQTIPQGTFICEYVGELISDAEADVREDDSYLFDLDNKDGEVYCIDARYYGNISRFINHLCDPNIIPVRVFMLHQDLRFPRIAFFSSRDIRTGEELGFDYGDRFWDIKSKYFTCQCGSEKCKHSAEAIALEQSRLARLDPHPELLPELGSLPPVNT

| Compound | Potency | activity, negative = inhibition |
| --- | --- | --- |
| O=S(=O)(NCc1ccccc1)c1ccc(S(=O)(=O)N(Cc2ccccn2)C2CCCC2)cc1 | inconclusive: 25.1 µM [inhibitor, single point] |  |
| O=C(c1cc(COc2ccc3ncccc3c2)on1)N1CCCCCC1 | inconclusive: 56.2 µM [inhibitor, partial curve, poor fit] |  |
| COc1ccc2[nH]c(O)c(NC(C)=O)c2c1 | inconclusive: 2 µM [inhibitor, partial curve, poor fit] |  |
| CCOc1ccc(-c2nc(CS(=O)(=O)CC(=O)NCc3ccc(F)cc3)c(C)o2)cc1 | inconclusive: 10 µM [inhibitor, partial curve, poor fit] |  |
| Cc1c(NC(=O)CSc2nncc3ccccc23)c(=O)n(-c2ccccc2)n1C | inconclusive: 39.8 µM [inhibitor, single point] |  |
| COc1ccc(NC(=O)CC(c2ccccc2)c2ccco2)cc1 (stereo not drawn) | inconclusive: 6.31 µM [inhibitor, single point] |  |
| O=C1CC(c2ccco2)CC(O)=C1C=NCCO (stereo not drawn) | active: 79.4 µM |  |
| Cc1ccc(NC(=O)C2CC2c2ccccc2)c([N+](=O)[O-])c1 (stereo not drawn) | active: 39.8 µM |  |
| CC(C)CC(=O)Nc1cccc(-c2csc(-c3ccccc3)n2)c1 |  | inconclusive: -59.6% [inhibitor] [at 12.7 µM] |
| CCOCCCNCc1ccc(Cl)cc1 | active: 11.2 µM |  |
| O=C(N/N=C/C=C\c1ccccc1[N+](=O)[O-])c1ccco1 | inconclusive: 89.1 µM [inhibitor, single point] |  |
| Cc1ccnc2nc(C(=O)OC(C)C(=O)NCc3ccccc3)nn12 (stereo not drawn) |  | inactive: -13% [at 2.33 µM] |
| Cc1cccc(N2CCN(C(=O)C3CCN(S(=O)(=O)c4cccc5cccnc45)CC3)CC2C)c1 (stereo not drawn) | inconclusive: 89.1 µM [inhibitor, single point] |  |
| COc1ccc(OC)c(C2C3=C(CCCC3=O)NC3=C2C(=O)CCC3)c1 | inconclusive: 100 µM [inhibitor, single point] |  |
| O=c1[nH]c(NNC(=S)NC2CCCCC2)nc2c1C1(CCCC1)Cc1ccccc1-2 |  | inactive: -7.86% [at 12.7 µM] |
| COc1ccc(OC)c(C(c2nnnn2C2CCCC2)N2CCc3ccccc3C2)c1 (stereo not drawn) |  | inconclusive: -76.5% [inhibitor] |
| Cc1cccc2sc(NC(=O)CN(C)S(=O)(=O)c3cccs3)nc12 | inconclusive: 1.78 µM [inhibitor, full curve, poor fit] |  |
| O=S(=O)(c1ccc2nc(SCc3ccc(Cl)cc3)[nH]c2c1)N1CCOCC1 | inconclusive: 28.2 µM [inhibitor, single point] |  |
| COc1cc2[nH]c(C(=O)N3CCN(c4ccccc4F)CC3)cc2c(OC)c1OC | inconclusive: 89.1 µM [inhibitor, single point] |  |
| O=C(Nc1ccc2oc(-c3ccc(O)c(Br)c3)nc2c1)c1cc2ccccc2o1 | inactive |  |
| O=C(NCCc1ccccc1)C1(c2ccccc2)CC1(Cl)Cl (stereo not drawn) | inactive |  |
| COc1ccc(NC(=O)N2CC[C@@]3(CCCN(C(C)=O)C3)C2)cc1 |  | inactive: -17.7% [at 12.7 µM] |

| Compound | Potency | activity, negative = inhibition |
| --- | --- | --- |
| CC(=O)c1cccc(NC(=O)C(OC(=O)c2cccs2)c2ccccc2)c1 (stereo not drawn) | inconclusive: 22.4 µM [inhibitor, partial curve, poor fit] |  |
| CC(C)(C)NC(=O)NC(=O)COC(=O)Cc1coc2ccc3ccccc3c12 | inconclusive: 39.8 µM [inhibitor, single point] |  |
| CC12COC3(P(=O)(c4ccccc4)c4ccccc4)CC1CCC23CP(=O)(c1ccccc1)c1ccccc1 (stereo not drawn) | inconclusive: 39.8 µM [inhibitor, partial curve, poor fit] |  |
| CCn1c2c(c(=O)n3ncc(C(=O)Nc4cc(Cl)ccc4C)c13)CN(Cc1ccc(OC)cc1)CC2 | inactive |  |
| Cc1n[nH]c(C)c1CS(=O)(=O)c1ccccc1 | inactive |  |
| COc1ccc(C(=O)N/N=C(\C)CC(=O)Nc2ccc(N(C)C)cc2)c(OC)c1 |  | inactive: 13.4% [at 0.501 µM] |
| Cc1ccn2c(Nc3ccc(C(C)C)cc3)c(-c3cccs3)nc2c1 | inconclusive: 1.41 µM [inhibitor, partial curve, poor fit] |  |
| CCOc1cccc(OCCCCN2CCCCC2)c1 | active: 8.91 µM |  |
| CN(CC(=O)Nc1ccccc1Cl)C(=O)c1ccccc1SCC(=O)N1CCCC1 | inconclusive: 79.4 µM [inhibitor, single point] |  |
| O=C1OC(C(=O)Nc2ccccc2)Cc2ccccc21 (stereo not drawn) | inactive |  |
| CN1CCc2c(sc3c2C(=O)NC(c2ccccc2)N3)C1 (stereo not drawn) | active: 39.8 µM |  |
| Cc1cc(S(=O)(=O)NCC(c2ccc3c(c2)OCO3)N2CCOCC2)ccc1F (stereo not drawn) | inconclusive: 89.1 µM [inhibitor, partial curve, poor fit] |  |
| CCOC(=O)c1c(NC(=O)c2cc(-c3cccc(O)c3)on2)sc(C(C)=O)c1C | inconclusive: 44.7 µM [inhibitor, partial curve, poor fit] |  |
| CSCc1c(C(=O)NCCc2ccccn2)oc2ccccc12 | inconclusive: 89.1 µM [inhibitor, single point] |  |
| CS/C(=N\S(=O)(=O)c1cccs1)Nc1ccc(Cl)cc1 | inconclusive: 17.8 µM [inhibitor, single point] |  |
| COc1ccc(OCCNc2cc(Cl)ccc2[N+](=O)[O-])cc1 | inconclusive: 35.5 µM [inhibitor, single point] |  |
| O=C(Nc1ccccc1N1CCCC1)c1ccc(Cl)cc1Cl | inactive |  |
| Cc1c(Cl)cnc(NC(=O)COC(=O)CCS(=O)(=O)c2ccccc2)c1Cl | inconclusive: 56.2 µM [inhibitor, partial curve, poor fit] |  |
| COc1ccc(-c2nc(-c3ccc(O)cc3O)cs2)cc1OC | inconclusive: 63.1 µM [inhibitor, partial curve, poor fit] |  |
| Cc1nc2cc(C(F)(F)F)ccc2n1CCNc1nc(-c2ccc([N+](=O)[O-])c(Cl)c2)cs1 | inconclusive: 56.2 µM [inhibitor, single point] |  |
| CCCCN(C)C(=O)c1ccc(CS(=O)(=O)c2ccccc2C)o1 | inconclusive: 20 µM [inhibitor, partial curve, poor fit] |  |
